From the RNAGym collection of RNA variant scans (doi:10.1093/nar/gkz1192)
Read counts are not given, so values of variants with three or more changes are uncertain.

B1: CPEB3 Ribozyme (parent)
chain: UAACAGGGGGCCACAGCAGAAGCGUUCACGUCGCAGCCCCUGUCAGAUUCUGGUGAAUCUGCGAAUUCUGCUGUAUAUCUC

Variants of: B1
Test: self-cleavage, relative activity (ratio to wild type); higher = more cleavage; in vitro, sequencing
Method in brief: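 Libraries of CPEB3 self-cleaving ribozyme mutants came from rounds of error-prone PCR and carried barcodes, which DNA sequencing matched to variants. In vitro transcription used T7 RNA polymerase at 37°C for 5 hours, with a further 15 min in DNase I before EDTA stopped the reaction; the ribozymes cleaved during both steps. The RNA was reverse transcribed with template switching and sequenced on Illumina. Relative activity is the cleaved/total read fraction of a variant divided by that of the unmutated ribozyme, averaged over three batches with at least 5 reads.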

Question: Which self-cleavage does the source give for UAACAGGGGGCCACAGCAGGAGCGUUCACGUCGCAGCCCCUGUCAGAUUCUGGUGAAUCUGCGCAUUCUGCAGUAUAUCUC [A20G A64C U72A] here?
Answer: 0.17

Question: Which self-cleavage does the source give for UAACAGGGGGCCACAGCAGGAGCGUUCACGUCGCAGCCCCUGUCAGAUUCUGGUGAAUCUGCGGUUUCUGCUGUAUAUCUC [A20G A64G A65U] here?
Answer: 0.4

Question: For UAACAGGGGGCCACAGCAGGAGCGUUCACGUCGCAGCCCCUGUCAGAUUCUGGUGAAUCUGCGGAUUCUGCUGUUUAUCUC [A20G A64G A75U], which self-cleavage is on record?
Answer: 0.78

Question: Which self-cleavage does the source give for UAACAGGGGGCCACAGCAGGAGCGUUCACGUCGCAGCCCCUGUCAGAUUCUGGUGAAUCUGCGGAUUCUGCAGUAUAUCUC [A20G A64G U72A] here?
Answer: 0.31

Question: With UAACAGGGGGCCACAGCAGGAGCGUUCACGUCGCAGCCCCUGUCAGAUUCUGGUGAAUCUGCGUAUUCUGCUGUGUAUCUC [A20G A64U A75G] as the variant, how does the self-cleavage read?
Answer: 0.12

Question: With UAACAGGGGGCCACAGCAGGAGCGUUCACGUCGCAGCCCCUGUCAGAUUCUGGUGAAUCUGCGAGUUCUGCUGUUUAUCUC [A20G A65G A75U] as the variant, how does the self-cleavage read?
Answer: 0.46

Question: Which self-cleavage does the source give for UAACAGGGGGCCACAGCAGGAGAGUUCACGUCGCAGCCCCUGUCAGAUUCUGGUGAAUCUGCUAAUUCAGCUGUAUUUCUC [A20G C23A G63U U69A A77U] here?
Answer: 0.07

Question: Which self-cleavage does the source give for UAACAGGGGGCCACAGCAGGAGGGUCCACGUCGCAGCCCCUAUCAGAUUCUGGUGAAUCUGCGAAUUCUGCUGUAUAUCUC [A20G C23G U26C G42A] here?
Answer: 0.08

Question: With UAACAGGGGGCCACAGCAGGAGUGUUCACGUCGCAGCCCCCGUCAGAUUCUGGUGAAUCUGCGAAUUCUGCUGUAUAUCUC [A20G C23U U41C] as the variant, how does the self-cleavage read?
Answer: 0.25

Question: Which self-cleavage does the source give for UAACAGGGGGCCACAGCAGGAGUGUUCACGUCGCAGCCCCUGUCAGAUGCUGGCGUAUCUGCGAAUUCUGCUGUAUAUCUC [A20G C23U U49G U54C A56U] here?
Answer: 0.08

Question: For UAACAGGGGGCCACAGCAGGAGCGUUAGCGUCGCAGCCCCAGUCAGAUUCUGGUGAAUCUGCGAAUUCUGCUAUAUAUCUC [A20G C27A A28G U41A G73A], which self-cleavage is on record?
Answer: 0.5

Question: With UAACAGGGGGCCACAGCAGGAGCGUUUAAGUCACAGCCCCUGUCAGAUUCUGGUGAAUCUGCGAAUUCUGCUGUAUAUCCC [A20G C27U C29A G33A U80C] as the variant, how does the self-cleavage read?
Answer: 0.1

Question: Which self-cleavage does the source give for UAACAGGGGGCCACAGCAGGAGCGUUUACGUCGCAGCCCCUGUCAGAUUCUGGUGAAUCCGCGAAUUCUGCUGUAUAUCUC [A20G C27U U60C] here?
Answer: 0.27

Question: Which self-cleavage does the source give for UAACAGGGGGCCACAGCAGGAGCGUUCAUGUCGCAGCCACUGUCAGAUCCUGCUGAAUCUGCGAAUUCUGCUGAAUAUCUC [A20G C29U C39A U49C G53C U74A] here?
Answer: 0.04

Question: For UAACAGGGGGCCACAGCAGGAGCGUUCAUGUCGCAGCCCCUGUCAGAUUCUGGUGAACCAGUGAACUCUGCUGUAUAUCUC [A20G C29U U58C U60A C62U U66C], which self-cleavage is on record?
Answer: 0.33

Question: With UAACAGGGGGCCACAGCAGGAGCGUUCACGUAGCAGCCCCCGCCAGAUUCUGGUGAAUCUGUGAAUCUUGCUGUAUAUCUC [A20G C32A U41C U43C C62U U67C C68U] as the variant, how does the self-cleavage read?
Answer: 0.09

Question: For UAACAGGGGGCCACAGCAGGAGCGUUCACGUAGCAGCCCCUGUCAGAUUCAGGUGAAUCUGCGAAUUCUGCUGUAUAUCUC [A20G C32A U51A], which self-cleavage is on record?
Answer: 0.25

Question: For UAACAGGGGGCCACAGCAGGAGCGUUCACGUAGCAGCCCCUGUCAGAUUCUGGCGAAUCUGCGAGUUCUGCUGUAUAUCUC [A20G C32A U54C A65G], which self-cleavage is on record?
Answer: 0.16

Question: With UAACAGGGGGCCACAGCAGGAGCGUUCACGUAGCAGCCCCUGUCAGAUUCUGGUGAAUCUGCGAACUCUGCUGUAUAUCUC [A20G C32A U66C] as the variant, how does the self-cleavage read?
Answer: 0.2

Question: For UAACAGGGGGCCACAGCAGGAGCGUUCACGUUGCAGCCCCUGUCAGAUUCUGGUGAAUCUGCGAAUUCUGCUGUAUGUCUC [A20G C32U A77G], which self-cleavage is on record?
Answer: 0.22

Question: Which self-cleavage does the source give for UAACAGGGGGCCACAGCAGGAGCGUUCACGUUGCAGCCCCUGUCAGAUUCUGGUGAAUCCGCGAAUUCUGCUGUAUAUCUC [A20G C32U U60C] here?
Answer: 0.06

Question: For UAACAGGGGGCCACAGCAGGAGCGUUCACGUCGCAGGCCCUGUCAGAUUCUGGUGAAUCUGUGAAUUCUGCUGUAUAUCUC [A20G C37G C62U], which self-cleavage is on record?
Answer: 0.09

Question: Which self-cleavage does the source give for UAACAGGGGGCCACAGCAGGAGCGUUCACGUCGCAGUCCUUGUCAGAUUCUGGUGAAUCUGCGAAUACCGCUGUAUAUCUC [A20G C37U C40U U67A U69C] here?
Answer: 0.19

Question: For UAACAGGGGGCCACAGCAGGAGCGUUCACGUCGCAGUCCCUGUCAGAUUCUGGUGAACCUGCGAAUUCCGCCGUACAUCUC [A20G C37U U58C U69C U72C U76C], which self-cleavage is on record?
Answer: 0.03

Question: Which self-cleavage does the source give for UAACAGGGGGCCACAGCAGGAGCGUUCACGUCGCAGUCCCUGUCAGAUUCUGGUGAAUCUGCGAAUUCUGCGGUAUAUCUC [A20G C37U U72G] here?
Answer: 0.5

Question: Which self-cleavage does the source give for UAACAGGGGGCCACAGCAGGAGCGUUCACGUCGCAGCUCCAGUCAGAUCCUGGUGAAUCUGCGAAUUUUGCUGUAUAUCUC [A20G C38U U41A U49C C68U] here?
Answer: 0.1

Question: Which self-cleavage does the source give for UAACAGGGGGCCACAGCAGGAGCGUUCACGUCGCAGCCGCUGUCAGAUUCUGGUGAAUCUGCGAAUUCUGCUGUAUACCUC [A20G C39G U78C] here?
Answer: 0.61

Question: Which self-cleavage does the source give for UAACAGGGGGCCACAGCAGGAGCGUUCACGUCGCAGCCUCUGUCGGAUUCUGGUGAAUCUGCGAAUUCUGCUGUAUAUCUC [A20G C39U A45G] here?
Answer: 0.28

Question: With UAACAGGGGGCCACAGCAGGAGCGUUCACGUCGCAGCCUCUGUCAGAUUCUGGUGAAUCUGUGAAUUCUGCUAUAUAUCUC [A20G C39U C62U G73A] as the variant, how does the self-cleavage read?
Answer: 0.36

Question: Which self-cleavage does the source give for UAACAGGGGGCCACAGCAGGAGCGUUCACGUCGCAGCCUCUGUCAGAUUCUGGUGAAUCCGCGAAUUCCGCUGUAUAUCUC [A20G C39U U60C U69C] here?
Answer: 0.42

Question: With UAACAGGGGGCCACAGCAGGAGCGUUCACGUCGCAGCCUCUGUCAGAUUCUGGUGAAUCUGCGAAUUCUGCUGUAUACCCC [A20G C39U U78C U80C] as the variant, how does the self-cleavage read?
Answer: 0.21

Question: With UAACAGGGGGCCACAGCAGGAGCGUUCACGUCGCAGCCCAUGUCAGAUUCUGGUGAACCUGCGAAUUCUGCUGUAUAUCUC [A20G C40A U58C] as the variant, how does the self-cleavage read?
Answer: 0.32

Question: Which self-cleavage does the source give for UAACAGGGGGCCACAGCAGGAGCGUUCACGUCGCAGCCCGUGUCAGAUUCUGGUGAAUCGGCGAAUUCUGCUGUAAAUCUC [A20G C40G U60G U76A] here?
Answer: 0.21

Question: Which self-cleavage does the source give for UAACAGGGGGCCACAGCAGGAGCGUUCACGUCGCAGCCCUUGUCAGAUUCUGGUGAAUCUGCGAGUUCUGCUGUAUAUCUC [A20G C40U A65G] here?
Answer: 0.14
